Assay [1] has as its target T1, recombinant human TfR (r human TfR: Sino Biological Inc.), hTfR extracellular region with a histidine tag at … (human, UniProt P02786).
T1 construct: Bought from Sino Biological; also called r human TfR-ECD (Histag); recombinant hTfR; not shown: histidine tag at the N-terminus
In words: BLI (Octet RED96), His-tagged TfR ECD on Ni-NTA sensor. A general note: BLI is a label-free optical method that tracks binding on a fibre tip over time.

The target of assay [2] is T2, recombinant monkey TfR (r monkey TfR: Sino Biological Inc.), crab-eating monkey TfR extracellular region with … (crab-eating monkey (Macaca fascicularis)).
T2 construct: Bought from Sino Biological; also called r monkey TfR-ECD (Histag); not shown: histidine tag at the N-terminus
T2 chain: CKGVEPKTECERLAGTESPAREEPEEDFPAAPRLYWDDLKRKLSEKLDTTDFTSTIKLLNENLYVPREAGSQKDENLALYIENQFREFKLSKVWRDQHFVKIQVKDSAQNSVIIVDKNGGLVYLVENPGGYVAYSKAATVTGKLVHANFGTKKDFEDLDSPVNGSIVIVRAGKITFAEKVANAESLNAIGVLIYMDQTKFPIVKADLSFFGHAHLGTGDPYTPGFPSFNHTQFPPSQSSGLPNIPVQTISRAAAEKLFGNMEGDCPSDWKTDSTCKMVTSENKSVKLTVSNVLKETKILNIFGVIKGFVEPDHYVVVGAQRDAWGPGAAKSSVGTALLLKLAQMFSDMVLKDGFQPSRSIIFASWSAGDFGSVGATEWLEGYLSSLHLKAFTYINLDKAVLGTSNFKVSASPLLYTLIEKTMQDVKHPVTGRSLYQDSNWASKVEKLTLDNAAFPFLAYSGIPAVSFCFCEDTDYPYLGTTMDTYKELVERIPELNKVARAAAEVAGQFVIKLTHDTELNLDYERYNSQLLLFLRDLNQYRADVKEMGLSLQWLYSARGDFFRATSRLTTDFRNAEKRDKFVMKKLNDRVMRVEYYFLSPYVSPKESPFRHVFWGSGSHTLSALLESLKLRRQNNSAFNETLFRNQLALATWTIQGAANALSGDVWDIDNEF
The assay is described as above.

The Kd is the equilibrium constant for the complex coming apart. By koff is commonly meant the rate constant with which the complex falls apart. By kon is commonly meant the second-order rate constant of association.

B1: IgG4 TPP1 (other)
light: DIVMTQTPLSLSVTPGQPASISCRSSQSLVHSNGNTYLHWYLQKPGQSPQLLIYKVSNRFSGVPDRFSGSGSGTDFTLKISRVEAEDVGVYYCSQSTHVPWTFGQGTKVEIKRTVAAPSVFIFPPSDEQLKSGTASVVCLLNNFYPREAKVQWKVDNALQSGNSQESVTEQDSKDSTYSLSSTLTLSKADYEKHKVYACEVTHQGLSSPVTKSFNRGEC
heavy: EVQLVQSGAEVKKPGESLKISCKGSGYSFMNYWLGWVRQMPGKGLEWMGDIYPGGDYPTYSEKFKVQVTISADKSISTAYLQLSSLKASDTAMYYCARSGNYDEVAYWGQGTLVTVSSASTKGPSVFPLAPCSRSTSESTAALGCLVKDYFPEPVTVSWNSGALTSGVHTFPAVLQSSGLYSLSSVVTVPSSSLGTKTYTCNVDHKPSNTKVDKRV[sequence of human IgG4 Fc with S228P L445P (EU numbers) omitted]GSSYSPEPDQRRTLPPGWVSLGRADPEEELSLTFALRQQNVERLSELVQAVSDPSSPQYGKYLTLENVADLVRPSPLTLHTVQKWLLAAGAQKCHSVITQDFLTCWLSIRQAELLLPGAEFHHYVGGPTETHVVRSPHPYQLPQALAPHVDFVGGLHHFPPTSSLRQRPEPQVTGTVGLHLGVTPSVIRKRYNLTSQDVGSGTSNNSQACAQFLEQYFHDSDLAQFMRLFGGNFAHQASVARVVGQQGRGRAGIEASLDVQYLMSAGANISTWVYSSPGRHEGQEPFLQWLMLLSNESALPHVHTVSYGDDEDSLSSAYIQRVNTELMKAAARGLTLLFASGDSGAGCWSVSGRHQFRPTFPASSPYVTTVGGTSFQEPFLITNEIVDYISGGGFSNVFPRPSYQEEAVTKFLSSSPHLPPSSYFNASGRAYPDVAALSDGYWVVSNRVPIPWVSGTSASTPVFGGILSLINEHRILSGRPPLGFLNPRLYQQHGAGLFDVTRGCHESCLDEEVEGQGFCSGPGWDPVTGWGTPNFPALLKTLLNP
notes: Antibody-enzyme fusion: heavy chain (IgG4) of antibody No. 3N, Gly-Ser, then hTPP-1; also called IgG4 HC-TPP1
As for B1, in assay [1], the Kd is under 1 pM, the dissociation rate constant (koff) was under 1e-07 s⁻¹ and the on-rate (kon) was determined as 758000 M⁻¹ s⁻¹. In assay [2], the Kd is under 1 pM, the koff was under 1e-07 s⁻¹ and the kon was 341000 M⁻¹ s⁻¹.

B2: IgG4 GS10-AC (other)
light: B1 light
heavy: EVQLVQSGAEVKKPGESLKISCKGSGYSFMNYWLGWVRQMPGKGLEWMGDIYPGGDYPTYSEKFKVQVTISADKSISTAYLQLSSLKASDTAMYYCARSGNYDEVAYWGQGTLVTVSSASTKGPSVFPLAPCSRSTSESTAALGCLVKDYFPEPVTVSWNSGALTSGVHTFPAVLQSSGLYSLSSVVTVPSSSLGTKTYTCNVDHKPSNTKVDKRV[sequence of human IgG4 Fc with S228P L445P (EU numbers) omitted]GGGGSGGGGSGGGGSGGGGSGGGGSGGGGSGGGGSGGGGSGGGGSGGGGSQHAPPWTEDCRKSTYPPSGPTYRGAVPWYTINLDLPPYKRWHELMLDKAPVLKVIVNSLKNMINTFVPSGKIMQVVDEKLPGLLGNFPGPFEEEMKGIAAVTDIPLGEIISFNIFYELFTICTSIVAEDKKGHLIHGRNMDFGVFLGWNINNDTWVITEQLKPLTVNLDFQRNNKTVFKASSFAGYVGMLTGFKPGLFSLTLNERFSINGGYLGILEWILGKKDVMWIGFLTRTVLENSTSYEEAKNLLTKTKILAPAYFILGGNQSGEGCVITRDRKESLDVYELDAKQGRWYVVQTNYDRWKHPFFLDDRRTPAKMCLNRTSQENISFETMYDVLSTKPVLNKLTVYTTLIDVTKGQFETYLRDCPDPCIGW
notes: also called IgG4 HC-GS10-AC
For the molecule B2, in assay [1], the dissociation constant Kd was under 1 pM, the koff was under 1e-07 s⁻¹ and the on-rate (kon) was found to be 576000 M⁻¹ s⁻¹. For the same molecule, in assay [2], the Kd is under 1 pM, the koff was under 1e-07 s⁻¹ and the kon is 301000 M⁻¹ s⁻¹.

B3: IgG4 GS20-TPP1 (other)
light: B1 light
heavy: EVQLVQSGAEVKKPGESLKISCKGSGYSFMNYWLGWVRQMPGKGLEWMGDIYPGGDYPTYSEKFKVQVTISADKSISTAYLQLSSLKASDTAMYYCARSGNYDEVAYWGQGTLVTVSSASTKGPSVFPLAPCSRSTSESTAALGCLVKDYFPEPVTVSWNSGALTSGVHTFPAVLQSSGLYSLSSVVTVPSSSLGTKTYTCNVDHKPSNTKVDKRV[sequence of human IgG4 Fc with S228P L445P (EU numbers) omitted]GGGGSGGGGSGGGGSGGGGSGGGGSGGGGSGGGGSGGGGSGGGGSGGGGSGGGGSGGGGSGGGGSGGGGSGGGGSGGGGSGGGGSGGGGSGGGGSGGGGSSYSPEPDQRRTLPPGWVSLGRADPEEELSLTFALRQQNVERLSELVQAVSDPSSPQYGKYLTLENVADLVRPSPLTLHTVQKWLLAAGAQKCHSVITQDFLTCWLSIRQAELLLPGAEFHHYVGGPTETHVVRSPHPYQLPQALAPHVDFVGGLHHFPPTSSLRQRPEPQVTGTVGLHLGVTPSVIRKRYNLTSQDVGSGTSNNSQACAQFLEQYFHDSDLAQFMRLFGGNFAHQASVARVVGQQGRGRAGIEASLDVQYLMSAGANISTWVYSSPGRHEGQEPFLQWLMLLSNESALPHVHTVSYGDDEDSLSSAYIQRVNTELMKAAARGLTLLFASGDSGAGCWSVSGRHQFRPTFPASSPYVTTVGGTSFQEPFLITNEIVDYISGGGFSNVFPRPSYQEEAVTKFLSSSPHLPPSSYFNASGRAYPDVAALSDGYWVVSNRVPIPWVSGTSASTPVFGGILSLINEHRILSGRPPLGFLNPRLYQQHGAGLFDVTRGCHESCLDEEVEGQGFCSGPGWDPVTGWGTPNFPALLKTLLNP
notes: also called IgG4 HC-GS20-TPP1
Turning to B3, in assay [1], the Kd is under 1 pM, the koff was under 1e-07 s⁻¹ and the kon was 682000 M⁻¹ s⁻¹. Moreover, in assay [2], the Kd is under 1 pM, the koff was under 1e-07 s⁻¹ and the on-rate (kon) is 302000 M⁻¹ s⁻¹.

B4: IgG4 GS10-FUCA1 (other)
light: B1 light
heavy: EVQLVQSGAEVKKPGESLKISCKGSGYSFMNYWLGWVRQMPGKGLEWMGDIYPGGDYPTYSEKFKVQVTISADKSISTAYLQLSSLKASDTAMYYCARSGNYDEVAYWGQGTLVTVSSASTKGPSVFPLAPCSRSTSESTAALGCLVKDYFPEPVTVSWNSGALTSGVHTFPAVLQSSGLYSLSSVVTVPSSSLGTKTYTCNVDHKPSNTKVDKRV[sequence of human IgG4 Fc with S228P L445P (EU numbers) omitted]GGGGSGGGGSGGGGSGGGGSGGGGSGGGGSGGGGSGGGGSGGGGSGGGGSQPPRRYTPDWPSLDSRPLPAWFDEAKFGVFIHWGVFSVPAWGSEWFWWHWQGEGRPQYQRFMRDNYPPGFSYADFGPQFTARFFHPEEWADLFQAAGAKYVVLTTKHHEGFTNWPSPVSWNWNSKDVGPHRDLVGELGTALRKRNIRYGLYHSLLEWFHPLYLLDKKNGFKTQHFVSAKTMPELYDLVNSYKPDLIWSDGEWECPDTYWNSTNFLSWLYNDSPVKDEVVVNDRWGQNCSCHHGGYYNCEDKFKPQSLPDHKWEMCTSIDKFSWGYRRDMALSDVTEESEIISELVQTVSLGGNYLLNIGPTKDGLIVPIFQERLLAVGKWLSINGEAIYASKPWRVQWEKNTTSVWYTSKGSAVYAIFLHWPENGVLNLESPITTSTTKITMLGIQGDLKWSTDPDKGLFISLPQLPPSAVPAEFAWTIKLTGVK
notes: also called IgG4 HC-GS10-FUCA1
On to B4, for which, in assay [1], the dissociation constant Kd was under 1 pM, the koff was under 1e-07 s⁻¹ and the kon amounted to 466000 M⁻¹ s⁻¹. Moreover, in assay [2], the Kd is under 1 pM, the koff is under 1e-07 s⁻¹ and the association rate constant (kon) amounted to 246000 M⁻¹ s⁻¹.

B5: IgG4 GS10-GALC (other)
light: B1 light
heavy: EVQLVQSGAEVKKPGESLKISCKGSGYSFMNYWLGWVRQMPGKGLEWMGDIYPGGDYPTYSEKFKVQVTISADKSISTAYLQLSSLKASDTAMYYCARSGNYDEVAYWGQGTLVTVSSASTKGPSVFPLAPCSRSTSESTAALGCLVKDYFPEPVTVSWNSGALTSGVHTFPAVLQSSGLYSLSSVVTVPSSSLGTKTYTCNVDHKPSNTKVDKRV[sequence of human IgG4 Fc with S228P L445P (EU numbers) omitted]GGGGSGGGGSGGGGSGGGGSGGGGSGGGGSGGGGSGGGGSGGGGSGGGGSYVLDDSDGLGREFDGIGAVSGGGATSRLLVNYPEPYRSQILDYLFKPNFGASLHILKVEIGGDGQTTDGTEPSHMHYALDENYFRGYEWWLMKEAKKRNPNITLIGLPWSFPGWLGKGFDWPYVNLQLTAYYVVTWIVGAKRYHDLDIDYIGIWNERSYNANYIKILRKMLNYQGLQRVKIIASDNLWESISASMLLDAELFKVVDVIGAHYPGTHSAKDAKLTGKKLWSSEDFSTLNSDMGAGCWGRILNQNYINGYMTSTIAWNLVASYYEQLPYGRCGLMTAQEPWSGHYVVESPVWVSAHTTQFTQPGWYYLKTVGHLEKGGSYVALTDGLGNLTIIIETMSHKHSKCIRPFLPYFNVSQQFATFVLKGSFSEIPELQVWYTKLGKTSERFLFKQLDSLWLLDSDGSFTLSLHEDELFTLTTLTTGRKGSYPLPPKSQPFPSTYKDDFNVDYPFFSEAPNFADQTGVFEYFTNIEDPGEHHFTLRQVLNQRPITWAADASNTISIIGDYNWTNLTIKCDVYIETPDTGGVFIAGRVNKGGILIRSARGIFFWIFANGSYRVTGDLAGWIIYALGRVEVTAKKWYTLTLTIKGHFTSGMLNDKSLWTDIPVNFPKNGWAAIGTHSFEFAQFDNFLVEATR
notes: also called IgG4 HC-GS10-GALC
For B5, in assay [1], the equilibrium dissociation constant (Kd) is under 1 pM, the off-rate constant (koff) was under 1e-07 s⁻¹ and the kon came out at 31400 M⁻¹ s⁻¹. Further, in assay [2], the Kd is under 1 pM, the koff was under 1e-07 s⁻¹ and the kon came out at 28000 M⁻¹ s⁻¹.
